Source: patent US5155209A, “R-(+) enantiomeric form of 7-(2, 3-epoxypropoxy) actinomycin D” (priority 1991, dated 1992)

Tests used:
purified calf thymus DNA = assay: Covalent and noncovalent (intercalative) binding to calf thymus DNA, [DNA base]/[drug] ratios; conditions: 20 mM Tris-HCl pH 7.4, 37° C.
Protocol: ^b Binding to purified calf thymus DNA in 20 mM TrisHCl, ph 7.4 buffe
at 37° C.; A values are molar ratios of DNA to drug based on the
total amount of drug that is bound both intercalatively and covalently to
^c B values are similar ratios assayed on the basis of drugs bound
entirely by covalent bonding to DNA base.

Calf Thymus DNA = assay: Thermal denaturation (ΔTm) of DNA-drug complex; type: binding; conditions: 0.01 phosphate buffer pH 7.0, 5% Me2SO
Protocol: ^a ΔTm = Tm of DNAdrug complex minus Tm of
drugfree DNA; concentration of drug 14.0 nM and that of DNA 70 nM in 0.01
phosphate buffer, pH 7.0, 5 × 10^3 EDTA and 5% Me2 SO.
Broad Tm of analogues indicate some covalent binding, in contrast to
relatively sharp Tm of actinomycin that is indicative of
intercalative binding to DNA.
DNA-binding experiments were carried out in 0.01M phosphate buffer (pH7), containing EDTA (10^-5 M). For unwinding studies with covalently closed circular DNA, SV 40 DNA (0.234 ug, BRL, Bethesda, MD) was dissolved in 10 mM Trizma base (pH 7.4) buffer containing 50 mM KCl, 50 mM MgCl2, and 0.1 mM EDTA and incubated with appropriate volumes of drug solution for 60 min at 37° C. After the addition of loading buffer (25% bromophenol blue, 25% xylene cyanol in 30% glycerol), each sample was added to a 1% agarose gel. The gels were run at 35 V overnight using a Tris-borate EDTA buffer (pH 8). The DNA was visualized by staining the gel with ethidium bromide (0.5 ug/mL).

[1] = tested on: RNA synthesis in L1210 cells; assay: Inhibition of RNA synthesis in L1210 ([5-3H]uridine incorporation); type: cell-based, Murine; conditions: [5-3H]uridine incorporation into RNA; read-out: inhibition of synthesis of nucleic acids in L1210 IC50 RNA
Protocol: (§1) ^a Drug concentration (micromolor) for 50% reduction of incorporation
(§2) of [methyl^14 C]thymidine into DNA^b and [5^3 H] uridine into
(§3) RNA^c from the rate of incorporation of the same radionucleotides in
(§4) nondrug treated L1210 cells growing actively in vitro.
(§5) Inhibition of nucleic acid synthesis in L1210 lymphoid leukemia cells by (±)-EPA and it optical isomers are assayed. […] In contrast, the racemic (±)-EPA, (R)- (+)-EPA, and (S)-(-)-EPA show about 3 to 1, 2 to 1 and 1 to 1 preference, respectively, for the inhibition of RNA to DNA synthesis. Because of the closeness of the IC50 DNA and IC50 RNA values for these isomers of EPA (Table V), a modification of the process was introduced in order to account for even a marginal cross-incorporation from the [2-^14 C] uridine into DNA. To achieve this, a digestion of the nucleic acid pellet with DNase-free RNase enzyme, prior to final pelleting of the DNA precipitate is made to ensure that no more than ±8% contamination from […] into DNA takes place, and for this the necessary correction is made in the data reported in Table V.

[2] = tested on: DNA synthesis in L1210 cells; assay: Inhibition of DNA synthesis in L1210 ([methyl-14C]thymidine incorporation); type: cell-based, Murine; conditions: for IC50: [methyl-14C]thymidine incorporation into DNA, read-out: inhibition of synthesis of nucleic acids in L1210 IC50 DNA; for IC50 DNA relative to IC50 RNA (preference for inhibition of RNA to DNA synthesis): L1210 cells
Protocol: as §1, §2, §3, §4, §5

[3] = tested on: P388/S lymphocytic leukemia; assay: P388/S lymphocytic leukemia in CDF1 mice; type: in vivo; conditions: optimal dose level
Protocol: P388/S is highly responsive to the action of AMD. In order to examine a broader spectrum of activity, these optical isomers are tested in two other mouse leukemia cell lines in vivo. One cell line, P388/ADR, is a derivative of the above P388/S made resistant to intercalating agents like […]. […] This remarkable improvement of activity in all the optically active or racemic forms of this analogue is matched by another alkylating agent, mitomycin C, which is known to act in cells via alkylation of DNA. Presumably, the high activities of these agents are derived primarily from their DNA-alkylatingproperty (Table III).

P388/ADR [4] = assay: Antitumor activity against ip implanted P388/ADR in CDF1 mice; type: in vivo; conditions: days 1-9
Protocol: ^e Optimal dose of drugs.
^ f Median survival time of tumor bearing mice.
^g Percent increase in median life time in days of drugtreated dying
animals vs those of controls; (survivors), number of 60 days
survivors/number of animals tested in the group.
In order to examine a broader spectrum of activity, these optical isomers are tested in two other mouse leukemia cell lines in vivo. One cell line, P388/ADR, is a derivative of the above P388/S made resistant to intercalating agents like […].

L1210 cells = assay: Inhibition of growth of L1210 cells in culture; type: cell-based, Murine; conditions: in vitro growth inhibition
Protocol: (§6) The analogues are assayed for in vitro growth inhibitory activity against several experimental tumor lines including human and murine leukemia, mouse melanoma, and human lymphoblastic leukemia.

P388/ADR [5] = assay: Inhibition of growth in vitro of P388/ADR cells; type: cell-based, mouse
Protocol: as §6

Cc1c2oc3c(C)c(OCC4CO4)cc(C(=O)NC4C(=O)NC(C(C)C)C(=O)N5CCCC5C(=O)N(C)CC(=O)N(C)C(C(C)C)C(=O)OC4C)c3nc-2c(C(=O)NC2C(=O)NC(C(C)C)C(=O)N3CCCC3C(=O)N(C)CC(=O)N(C)C(C(C)C)C(=O)OC2C)c(N)c1=O [(S)-(-)-EPA, 7-(2,3-epoxypropoxy) actinomycin D]
[DNA base]/[drug] A: molar ratio of DNA to drug, total drug bound intercalatively and covalently (purified calf thymus DNA): 32 ± 2 | [DNA base]/[drug] B: molar ratio, drug bound entirely by covalent bonding to DNA base (purified calf thymus DNA): 520 ± 15 | Tm (ΔTm = Tm of DNA-drug complex minus Tm of drug-free DNA) (Calf Thymus DNA): 5.0± 1.10 | IC50 [1]: 50 ± 5 nM | IC50 [2]: 60 ± 10 nM

Cc1c2oc3c(C)c(OCC4CO4)cc(C(=O)NC4C(=O)NC(C(C)C)C(=O)N5CCCC5C(=O)N(C)CC(=O)N(C)C(C(C)C)C(=O)OC4C)c3nc-2c(C(=O)NC2C(=O)NC(C(C)C)C(=O)N3CCCC3C(=O)N(C)CC(=O)N(C)C(C(C)C)C(=O)OC2C)c(N)c1=O (racemic) [3b[(±)-EPA]] [7-(2,3-epoxypropoxy) actinomycin D]
[DNA base]/[drug] A: molar ratio of DNA to drug, total drug bound intercalatively and covalently (purified calf thymus DNA): 32 ± 1 | [DNA base]/[drug] B: molar ratio, drug bound entirely by covalent bonding to DNA base (purified calf thymus DNA): 480 ± 10 | Tm (ΔTm = Tm of DNA-drug complex minus Tm of drug-free DNA) (Calf Thymus DNA): 5.2 ± 0.95 | % ILS relative to that effected by AMD [3]: 2.5 times | fold increase of % ILS over actinomycin (P388/ADR [4]): 10 fold | IC50 DNA relative to IC50 RNA (preference for inhibition of RNA to DNA synthesis) [2]: 3 to 1

Cc1c2oc3c(C)c(OCC4CO4)cc(C(=O)NC4C(=O)NC(C(C)C)C(=O)N5CCCC5C(=O)N(C)CC(=O)N(C)C(C(C)C)C(=O)OC4C)c3nc-2c(C(=O)NC2C(=O)NC(C(C)C)C(=O)N3CCCC3C(=O)N(C)CC(=O)N(C)C(C(C)C)C(=O)OC2C)c(N)c1=O [(R)-(+)-EPA, 7-(2,3-epoxypropoxy) actinomycin D]
[DNA base]/[drug] A: molar ratio of DNA to drug, total drug bound intercalatively and covalently (purified calf thymus DNA): 30 ± 2 | [DNA base]/[drug] B: molar ratio, drug bound entirely by covalent bonding to DNA base (purified calf thymus DNA): 500 ± 15 | potency relative to AMD in the L1210 line (L1210 cells): about 3 times | Tm (ΔTm = Tm of DNA-drug complex minus Tm of drug-free DNA) (Calf Thymus DNA): 4.8 ± 1.15 | potency relative to AMD in the P388/ADR line (P388/ADR [5]): more than 6 fold | IC50 [1]: 31 ± 5 nM | IC50 DNA relative to IC50 RNA (preference for inhibition of RNA to DNA synthesis) [2]: 2 to 1 | IC50 [2]: 60 ± 15 nM
